According to PMC8913617:
These are yes or no findings as the source states them, for the method shown. In cells and extracts the contact can be indirect. Some entries that bind do so weakly or less than the wild type. For some assays here: Sequences can lack the tags named with a protein. Values belong to the substance of their own block, whether it stands above or below them.

By UniProt entry, the sequences of proteins in these tests, tags left out.
UniProt P10415: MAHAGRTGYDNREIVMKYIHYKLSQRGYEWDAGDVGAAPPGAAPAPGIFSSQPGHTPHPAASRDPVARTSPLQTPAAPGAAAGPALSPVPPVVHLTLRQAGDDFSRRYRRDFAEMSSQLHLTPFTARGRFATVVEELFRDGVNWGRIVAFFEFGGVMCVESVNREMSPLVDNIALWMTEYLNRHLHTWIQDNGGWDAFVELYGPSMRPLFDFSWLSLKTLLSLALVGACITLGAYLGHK
UniProt Q14573: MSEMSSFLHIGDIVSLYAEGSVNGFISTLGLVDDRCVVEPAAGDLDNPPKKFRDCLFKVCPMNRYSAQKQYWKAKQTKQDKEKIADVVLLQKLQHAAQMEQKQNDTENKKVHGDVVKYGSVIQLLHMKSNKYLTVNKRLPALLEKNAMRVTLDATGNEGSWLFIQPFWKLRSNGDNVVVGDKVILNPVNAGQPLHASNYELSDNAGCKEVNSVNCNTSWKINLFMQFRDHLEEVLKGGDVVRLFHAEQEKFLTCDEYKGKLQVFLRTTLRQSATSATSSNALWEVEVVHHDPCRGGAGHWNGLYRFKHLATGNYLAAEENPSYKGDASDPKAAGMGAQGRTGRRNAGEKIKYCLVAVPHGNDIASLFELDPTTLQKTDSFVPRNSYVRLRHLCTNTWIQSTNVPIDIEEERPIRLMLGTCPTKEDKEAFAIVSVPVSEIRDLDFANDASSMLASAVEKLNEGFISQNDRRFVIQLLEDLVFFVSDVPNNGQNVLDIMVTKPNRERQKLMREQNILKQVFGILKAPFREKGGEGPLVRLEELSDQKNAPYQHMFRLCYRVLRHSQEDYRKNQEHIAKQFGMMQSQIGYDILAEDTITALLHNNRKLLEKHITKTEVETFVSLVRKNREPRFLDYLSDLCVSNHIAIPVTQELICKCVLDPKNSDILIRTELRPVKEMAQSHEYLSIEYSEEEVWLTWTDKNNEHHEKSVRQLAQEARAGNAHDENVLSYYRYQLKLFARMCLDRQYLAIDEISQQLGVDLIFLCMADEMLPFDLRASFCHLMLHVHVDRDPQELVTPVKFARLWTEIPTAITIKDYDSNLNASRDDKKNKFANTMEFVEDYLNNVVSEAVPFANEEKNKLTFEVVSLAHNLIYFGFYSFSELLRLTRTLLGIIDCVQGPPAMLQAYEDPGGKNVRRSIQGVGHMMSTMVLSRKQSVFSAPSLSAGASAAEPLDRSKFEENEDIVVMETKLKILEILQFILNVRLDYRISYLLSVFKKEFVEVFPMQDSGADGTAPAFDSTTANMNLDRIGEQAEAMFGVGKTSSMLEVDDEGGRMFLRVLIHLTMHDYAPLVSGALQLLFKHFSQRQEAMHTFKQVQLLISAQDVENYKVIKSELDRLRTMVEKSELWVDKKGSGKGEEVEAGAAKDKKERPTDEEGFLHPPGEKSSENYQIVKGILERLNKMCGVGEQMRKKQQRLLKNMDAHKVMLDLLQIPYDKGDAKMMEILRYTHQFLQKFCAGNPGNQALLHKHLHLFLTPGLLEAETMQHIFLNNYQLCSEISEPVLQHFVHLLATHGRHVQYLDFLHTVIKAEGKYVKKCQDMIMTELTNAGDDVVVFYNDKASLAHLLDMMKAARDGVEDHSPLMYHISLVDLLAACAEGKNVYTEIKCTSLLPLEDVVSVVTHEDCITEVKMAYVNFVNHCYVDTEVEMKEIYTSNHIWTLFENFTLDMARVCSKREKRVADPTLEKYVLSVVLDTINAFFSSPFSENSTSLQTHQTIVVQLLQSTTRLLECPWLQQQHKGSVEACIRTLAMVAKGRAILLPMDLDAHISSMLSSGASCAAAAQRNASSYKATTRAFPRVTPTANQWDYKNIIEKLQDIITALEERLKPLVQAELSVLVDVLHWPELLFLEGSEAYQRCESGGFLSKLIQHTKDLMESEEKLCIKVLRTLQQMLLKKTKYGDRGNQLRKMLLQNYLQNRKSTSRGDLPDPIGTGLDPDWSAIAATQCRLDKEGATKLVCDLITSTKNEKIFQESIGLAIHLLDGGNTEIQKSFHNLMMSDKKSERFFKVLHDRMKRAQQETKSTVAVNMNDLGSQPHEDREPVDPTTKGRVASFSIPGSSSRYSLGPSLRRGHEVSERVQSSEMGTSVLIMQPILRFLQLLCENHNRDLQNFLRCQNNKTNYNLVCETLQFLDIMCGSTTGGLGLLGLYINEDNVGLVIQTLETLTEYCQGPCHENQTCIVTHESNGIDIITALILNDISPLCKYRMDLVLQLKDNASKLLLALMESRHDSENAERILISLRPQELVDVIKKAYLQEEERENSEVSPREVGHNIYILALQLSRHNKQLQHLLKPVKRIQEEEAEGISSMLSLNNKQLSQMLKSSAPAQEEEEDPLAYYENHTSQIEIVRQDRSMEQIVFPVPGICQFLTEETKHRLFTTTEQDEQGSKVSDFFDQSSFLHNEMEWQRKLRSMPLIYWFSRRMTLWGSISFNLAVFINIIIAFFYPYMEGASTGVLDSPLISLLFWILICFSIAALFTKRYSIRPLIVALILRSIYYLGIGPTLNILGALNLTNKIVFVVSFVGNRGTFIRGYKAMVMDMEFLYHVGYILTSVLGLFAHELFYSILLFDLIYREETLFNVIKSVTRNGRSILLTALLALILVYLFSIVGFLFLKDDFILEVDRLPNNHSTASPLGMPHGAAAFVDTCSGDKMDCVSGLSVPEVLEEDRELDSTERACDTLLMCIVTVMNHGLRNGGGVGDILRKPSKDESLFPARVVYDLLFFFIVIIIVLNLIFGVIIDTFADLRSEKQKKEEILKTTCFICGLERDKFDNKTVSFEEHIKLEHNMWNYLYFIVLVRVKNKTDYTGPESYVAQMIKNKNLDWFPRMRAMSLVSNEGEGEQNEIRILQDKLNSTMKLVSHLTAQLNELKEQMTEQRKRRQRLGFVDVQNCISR
UniProt P10417: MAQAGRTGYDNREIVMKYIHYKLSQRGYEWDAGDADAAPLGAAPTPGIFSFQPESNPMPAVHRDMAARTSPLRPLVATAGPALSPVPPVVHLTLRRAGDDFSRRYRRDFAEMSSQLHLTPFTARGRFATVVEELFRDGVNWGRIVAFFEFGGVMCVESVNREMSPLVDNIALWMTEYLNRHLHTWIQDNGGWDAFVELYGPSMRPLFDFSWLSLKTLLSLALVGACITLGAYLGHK
UniProt O55143: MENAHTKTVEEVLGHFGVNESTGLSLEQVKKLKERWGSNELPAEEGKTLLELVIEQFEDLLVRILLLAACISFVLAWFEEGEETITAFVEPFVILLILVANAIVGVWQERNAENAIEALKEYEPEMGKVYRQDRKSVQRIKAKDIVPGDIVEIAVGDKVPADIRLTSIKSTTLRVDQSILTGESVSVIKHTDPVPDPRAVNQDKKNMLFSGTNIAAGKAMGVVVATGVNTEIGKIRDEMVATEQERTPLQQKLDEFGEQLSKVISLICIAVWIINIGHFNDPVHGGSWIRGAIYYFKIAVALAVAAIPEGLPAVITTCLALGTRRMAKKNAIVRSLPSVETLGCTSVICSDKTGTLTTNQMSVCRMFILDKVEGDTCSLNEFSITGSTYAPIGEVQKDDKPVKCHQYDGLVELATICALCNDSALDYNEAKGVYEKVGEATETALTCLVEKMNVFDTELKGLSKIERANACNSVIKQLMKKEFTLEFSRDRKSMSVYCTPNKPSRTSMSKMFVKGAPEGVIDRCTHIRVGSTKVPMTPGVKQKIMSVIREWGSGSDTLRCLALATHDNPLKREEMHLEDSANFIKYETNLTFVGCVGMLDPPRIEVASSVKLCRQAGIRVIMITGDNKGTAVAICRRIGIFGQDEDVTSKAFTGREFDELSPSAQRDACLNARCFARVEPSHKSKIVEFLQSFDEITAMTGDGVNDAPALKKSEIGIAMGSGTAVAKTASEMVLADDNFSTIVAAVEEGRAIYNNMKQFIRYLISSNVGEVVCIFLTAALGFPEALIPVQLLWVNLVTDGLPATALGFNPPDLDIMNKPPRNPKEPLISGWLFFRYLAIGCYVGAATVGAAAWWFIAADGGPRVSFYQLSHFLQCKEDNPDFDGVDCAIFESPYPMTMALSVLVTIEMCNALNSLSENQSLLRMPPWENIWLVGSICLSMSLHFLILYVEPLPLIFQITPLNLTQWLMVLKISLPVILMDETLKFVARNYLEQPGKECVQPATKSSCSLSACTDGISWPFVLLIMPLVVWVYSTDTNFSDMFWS

What was measured:
[1] = target: T1, iRhom2-3XHA stably expressed in iRhom1/2 DKO MEFs (mouse (from the plasmid name pM6P.Blast-miR2)) (UniProt Q80WQ6); test: co-IP; iRhom1/2 DKO MEFs stably expressing HA-tagged iRhom2 forms; endogenous partners; lysis in 1% Triton X-100, 200 mM NaCl, 50 mM Tris-HCl pH 7.4; anti-HA magnetic beads, 4 °C overnight; washes with 500 mM NaCl; immunoblot; in Fig. 6b after 18 h with control or BIRD-2 peptides (10 or 20 µM)
T1 sequence: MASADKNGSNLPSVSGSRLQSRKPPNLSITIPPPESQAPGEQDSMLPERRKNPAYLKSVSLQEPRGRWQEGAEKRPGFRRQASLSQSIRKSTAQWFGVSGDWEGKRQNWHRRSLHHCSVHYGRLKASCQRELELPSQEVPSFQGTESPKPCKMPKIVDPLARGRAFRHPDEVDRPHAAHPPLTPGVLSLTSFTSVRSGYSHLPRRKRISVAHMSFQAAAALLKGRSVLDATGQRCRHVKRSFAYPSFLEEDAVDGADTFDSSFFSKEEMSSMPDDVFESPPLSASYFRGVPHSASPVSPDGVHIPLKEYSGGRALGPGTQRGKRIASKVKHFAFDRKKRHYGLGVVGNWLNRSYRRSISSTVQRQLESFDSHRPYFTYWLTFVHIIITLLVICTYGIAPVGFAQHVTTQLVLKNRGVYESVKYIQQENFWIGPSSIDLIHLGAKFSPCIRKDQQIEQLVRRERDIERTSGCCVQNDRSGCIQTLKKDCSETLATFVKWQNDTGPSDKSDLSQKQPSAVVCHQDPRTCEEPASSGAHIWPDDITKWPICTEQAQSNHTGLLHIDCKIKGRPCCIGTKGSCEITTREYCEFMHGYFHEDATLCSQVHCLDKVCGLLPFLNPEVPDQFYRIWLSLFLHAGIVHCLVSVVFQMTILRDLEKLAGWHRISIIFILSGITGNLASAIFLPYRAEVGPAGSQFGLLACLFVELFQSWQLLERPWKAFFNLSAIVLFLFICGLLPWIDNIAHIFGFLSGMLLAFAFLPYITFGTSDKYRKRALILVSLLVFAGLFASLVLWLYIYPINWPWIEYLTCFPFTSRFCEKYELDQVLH

[2] = target: T2, iRhom2-HA (wild type, transiently expressed in HEK293T cells) (mouse (from the plasmid name pM6P.Blast-miR2)) (UniProt Q80WQ6); test: co-IP; HEK293T transiently co-transfected with two tagged proteins for 36-48 h; lysis in 1% Triton X-100, 200 mM NaCl, 50 mM Tris-HCl pH 7.4; anti-HA or anti-FLAG M2 magnetic beads, 4 °C overnight; washes with 500 mM NaCl; immunoblot; in Fig. 4f with tunicamycin (2 µg/ml) for the last 18 h
T2 sequence: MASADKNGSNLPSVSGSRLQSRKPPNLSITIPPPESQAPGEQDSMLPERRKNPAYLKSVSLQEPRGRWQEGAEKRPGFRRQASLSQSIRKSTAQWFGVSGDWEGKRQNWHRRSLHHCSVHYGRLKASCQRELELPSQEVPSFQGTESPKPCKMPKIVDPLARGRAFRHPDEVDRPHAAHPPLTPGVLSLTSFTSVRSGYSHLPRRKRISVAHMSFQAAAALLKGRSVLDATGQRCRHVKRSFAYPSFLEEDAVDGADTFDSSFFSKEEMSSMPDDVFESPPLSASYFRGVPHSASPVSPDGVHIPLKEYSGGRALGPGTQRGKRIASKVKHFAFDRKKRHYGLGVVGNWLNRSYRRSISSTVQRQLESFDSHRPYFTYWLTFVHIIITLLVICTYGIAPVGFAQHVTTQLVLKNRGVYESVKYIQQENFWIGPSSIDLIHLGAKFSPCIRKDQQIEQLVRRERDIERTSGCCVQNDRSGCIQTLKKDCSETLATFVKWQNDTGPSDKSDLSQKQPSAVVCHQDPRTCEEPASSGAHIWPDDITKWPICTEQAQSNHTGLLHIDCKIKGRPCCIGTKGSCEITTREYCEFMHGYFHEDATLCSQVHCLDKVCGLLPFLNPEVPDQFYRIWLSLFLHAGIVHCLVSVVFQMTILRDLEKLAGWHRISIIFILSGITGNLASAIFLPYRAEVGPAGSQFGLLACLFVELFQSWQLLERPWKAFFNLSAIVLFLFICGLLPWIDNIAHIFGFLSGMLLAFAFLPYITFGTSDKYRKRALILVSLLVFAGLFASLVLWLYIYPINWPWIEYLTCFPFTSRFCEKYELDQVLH

[3] = target: T3, iR2-Δ100 (iRhom2 lacking the N-terminal 100 residues), 3XHA (mouse (from the plasmid name pM6P.Blast-miR2)) (UniProt Q80WQ6); test: as above
T3 sequence: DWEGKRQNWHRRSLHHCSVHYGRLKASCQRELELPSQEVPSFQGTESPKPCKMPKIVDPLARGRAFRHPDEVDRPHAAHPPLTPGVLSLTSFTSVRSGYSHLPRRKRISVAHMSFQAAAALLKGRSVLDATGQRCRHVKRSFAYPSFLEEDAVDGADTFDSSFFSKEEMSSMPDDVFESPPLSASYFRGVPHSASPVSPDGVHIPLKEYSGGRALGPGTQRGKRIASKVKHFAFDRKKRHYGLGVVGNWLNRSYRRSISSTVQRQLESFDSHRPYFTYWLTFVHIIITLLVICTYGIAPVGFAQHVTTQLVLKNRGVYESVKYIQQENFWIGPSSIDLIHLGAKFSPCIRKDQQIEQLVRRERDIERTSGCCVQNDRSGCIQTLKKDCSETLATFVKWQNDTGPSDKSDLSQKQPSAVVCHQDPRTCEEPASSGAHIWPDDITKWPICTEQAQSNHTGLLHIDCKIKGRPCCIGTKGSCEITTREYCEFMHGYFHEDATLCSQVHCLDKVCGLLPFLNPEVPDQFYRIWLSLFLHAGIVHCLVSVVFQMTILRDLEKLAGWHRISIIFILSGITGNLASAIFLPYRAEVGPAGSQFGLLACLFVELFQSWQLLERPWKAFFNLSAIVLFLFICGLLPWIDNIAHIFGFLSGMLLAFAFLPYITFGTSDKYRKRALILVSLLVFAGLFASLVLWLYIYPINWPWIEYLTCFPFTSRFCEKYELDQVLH

[4] = target: T4, HA-iRhom2 (N-terminally HA-tagged, tetracycline-inducible, in iRhom1/2 DKO HEK293T cells) (UniProt Q80WQ6); test: proximity ligation; iRhom1/2 DKO HEK293T cells with tetracycline-inducible HA-iRhom2, 250 ng/ml doxycycline 24 h, fixed and permeabilised; antibodies to HA and to endogenous IP3R1 or IP3R3; Duolink PLA; dots per cell, induced against uninduced
T4 sequence: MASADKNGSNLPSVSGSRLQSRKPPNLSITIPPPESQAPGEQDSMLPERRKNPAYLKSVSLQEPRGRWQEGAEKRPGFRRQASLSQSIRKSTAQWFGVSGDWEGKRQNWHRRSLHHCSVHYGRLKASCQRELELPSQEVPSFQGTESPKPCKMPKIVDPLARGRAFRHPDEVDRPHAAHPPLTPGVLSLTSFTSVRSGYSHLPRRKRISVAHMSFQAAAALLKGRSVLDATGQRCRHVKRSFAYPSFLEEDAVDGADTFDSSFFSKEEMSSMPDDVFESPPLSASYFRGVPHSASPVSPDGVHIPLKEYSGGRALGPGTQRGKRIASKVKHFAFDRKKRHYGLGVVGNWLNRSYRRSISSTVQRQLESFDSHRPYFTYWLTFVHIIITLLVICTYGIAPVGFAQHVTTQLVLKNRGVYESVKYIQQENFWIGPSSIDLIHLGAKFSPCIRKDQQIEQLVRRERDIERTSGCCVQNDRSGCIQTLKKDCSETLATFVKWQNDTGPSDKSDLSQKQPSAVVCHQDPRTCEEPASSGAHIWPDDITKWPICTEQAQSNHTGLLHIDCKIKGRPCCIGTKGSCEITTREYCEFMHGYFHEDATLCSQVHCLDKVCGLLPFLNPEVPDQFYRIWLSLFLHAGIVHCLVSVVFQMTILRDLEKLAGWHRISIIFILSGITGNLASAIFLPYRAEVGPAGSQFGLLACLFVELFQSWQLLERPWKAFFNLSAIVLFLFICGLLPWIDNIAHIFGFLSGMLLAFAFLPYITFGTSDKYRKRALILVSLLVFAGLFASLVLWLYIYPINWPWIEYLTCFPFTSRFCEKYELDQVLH

[5] = target: T2, iRhom2-HA (wild type, transiently expressed in HEK293T cells) (mouse (from the plasmid name pM6P.Blast-miR2)); test: co-IP; cells expressing tagged iRhom and IP3R3 (Supplementary Fig. 4a); cells and tags not shown
[6] = target: T5, iRhom1 (tagged, co-IP of Supplementary Fig. 4a) (UniProt Q6PIX5); test: as above
T5 sequence: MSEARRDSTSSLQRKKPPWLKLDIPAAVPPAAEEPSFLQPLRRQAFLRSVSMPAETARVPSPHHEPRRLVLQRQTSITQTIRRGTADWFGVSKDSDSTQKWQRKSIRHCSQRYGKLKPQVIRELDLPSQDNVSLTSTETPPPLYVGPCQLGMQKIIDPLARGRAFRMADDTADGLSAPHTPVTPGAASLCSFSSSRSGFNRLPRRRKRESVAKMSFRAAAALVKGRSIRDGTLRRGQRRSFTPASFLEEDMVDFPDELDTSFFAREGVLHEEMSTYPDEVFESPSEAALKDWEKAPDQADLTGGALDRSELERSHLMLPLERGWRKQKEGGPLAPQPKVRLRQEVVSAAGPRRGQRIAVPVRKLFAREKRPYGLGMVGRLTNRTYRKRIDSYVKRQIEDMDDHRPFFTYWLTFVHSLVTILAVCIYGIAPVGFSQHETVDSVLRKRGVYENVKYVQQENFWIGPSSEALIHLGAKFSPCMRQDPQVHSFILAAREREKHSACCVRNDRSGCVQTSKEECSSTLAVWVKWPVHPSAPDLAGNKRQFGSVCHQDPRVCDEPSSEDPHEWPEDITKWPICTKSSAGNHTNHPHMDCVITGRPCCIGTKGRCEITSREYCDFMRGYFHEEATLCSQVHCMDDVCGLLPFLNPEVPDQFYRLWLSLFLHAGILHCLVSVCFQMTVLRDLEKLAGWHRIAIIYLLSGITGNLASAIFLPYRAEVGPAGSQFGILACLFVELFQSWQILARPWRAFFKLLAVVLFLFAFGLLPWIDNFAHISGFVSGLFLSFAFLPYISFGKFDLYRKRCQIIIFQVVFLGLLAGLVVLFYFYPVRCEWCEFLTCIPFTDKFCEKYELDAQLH

Substance: endogenous IP3R1 of MEFs (from UniProt P11881 1-2749) (receptor)
binding [1]: binds

Substance: FLAG-BCL-2_WT (from UniProt P10415 1-239)
binding [2]: binds | binding [3]: binds

Substance: endogenous IP3R3 of HEK293T cells (from UniProt Q14573 1-2671) (receptor)
binding [4]: binds

Other lines, results leading:

binding [5]: binds | binding [6]: binds
Substance: IP3R3 (tagged, co-IP of Supplementary Fig. 4a) (from UniProt Q63269 1-2670) (receptor)

binding [1]: binds
Substance: endogenous BCL-2 of MEFs (from UniProt P10417 1-236)

binding [1]: no binding
Substance: endogenous SERCA2 of MEFs (from UniProt O55143 1-1044)
